Assay results taken from the supplement of paper PMC8821664.
Counter-ions that a name gives are not always drawn. The list shows a part of the results. Single values are uncertain, as repeats are few or missing.

system: Beas-2B AQP5-HiBiT reporter cells; experiment: AQP5-HiBiT luminescence relative to vehicle (ratio to vehicle); higher = higher AQP5-HiBiT protein abundance; conditions: 10 µM; 18 h
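Also: monoclonal Beas-2B line stably carrying CMV promoter-driven AQP5-HiBiT, 5,000 cells per well in 384-well plates, lytic HiBiT plus LgBiT NanoLuc luminescence, FDA-approved drug library screen.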

Structure (SMILES)	AQP5-HiBiT luminescence
NC(=O)CC[C@H](N)C(=O)O [L-Glutamine]	0.76
CCC1(c2ccccc2)C(=O)NCNC1=O [Primidone]	1.13
O=C1[C@@H]2[C@H]3CC[C@H](C3)[C@@H]2C(=O)N1C[C@@H]1CCCC[C@H]1CN1CCN(c2nsc3ccccc23)CC1 [Lurasidone hydrochloride]	1
CCC1=C(C)CN(C(=O)NCCc2ccc(S(=O)(=O)NC(=O)N[C@H]3CC[C@H](C)CC3)cc2)C1=O [Glimepiride]	0.834
Cn1c(=O)c2[nH]cnc2n(C)c1=O [Aminophylline]	0.728
C[C@]12C=CC(=O)C=C1CC[C@@H]1[C@@H]2[C@@H](O)C[C@@]2(C)[C@H]1CC[C@]2(O)C(=O)COP(=O)(O)O [Prednisolone phosphate sodium]	0.786
CC(C)(C)c1nc(-c2cccc(NS(=O)(=O)c3c(F)cccc3F)c2F)c(-c2ccnc(N)n2)s1	0.435
CC(=O)O[C@H]1Cc2ccccc2N(C(N)=O)c2ccccc21 [Eslicarbazepine Acetate]	0.838
COc1ccc(CCN(C)CCCC(C#N)(c2ccc(OC)c(OC)c2)C(C)C)cc1OC (stereo not drawn) [Verapamil hydrochloride]	1.08
CCN(CC)C(=O)N1CCN(C)CC1 [Diethylcarbamazine citrate]	0.899
OCc1ccccc1 [Benzyl alcohol]	0.738
CCCCCCCCCCCCCCCCCCCCCCO [Behenic alcohol]	0.728
CC(N)C12CC3CC(CC(C3)C1)C2 (stereo not drawn) [Rimantadine hydrochloride]	0.843
